B1: OR4K15 (parent)
chain: GUUAACGGUCAUAGGCCAUGGAAACUAGGAGCACCAUUUCGCUGCCAGUGAAGAAAUGAACAAAGAAAAUCUGGGCCAGGCAGGCAUCAAAAGAAAUAGUCUUGCGCUCAACCAGAAAGUCUGUAAUCAUUUUAAGGGUA

The source gives no read counts; variants with many changes may rest on few reads.

In the data set the parent is B1. Put plainly: self-cleavage, relative activity (ratio to wild type); higher = more cleavage; in vitro, sequencing; the parent is a self-cleaving ribozyme.
Take A52G A60G U87C U103C: the self-cleavage came to 0.64.
For A54G U102C A116U A140G, the self-cleavage came out at 0.62.
The value for A54C A89U A116G U132A was 0.21; that for A54G A67G U70C A78U A95G U127C was 0.09.
For the variant A54G U70C A90G, the self-cleavage was 0.1.
With A55G G58U A62U A114C the figure was 0.05.
With A54U U87A G104A the figure was 0.06; with A55G A68G G75A A86G A126C, 0.11.
Consider A55G U70C A98G G137A, for which the self-cleavage worked out at 0.25.
The value for A52G U102C A111G A140G was 0.02; that for A52G A82G A110U was 0.7; that for A55G A63C U72C A117G was 0.47.
Consider A54G A62G A66G, for which the self-cleavage amounted to 1.2.
On to A52G U108C U132C, for which the self-cleavage was 0.01.
The value for A54G A67G A69G was 1.26.
The value for A52G A55G U100A was 0.09; that for A55G A63U U87A was 1.65.
The value for A52G A55G A68G A90G A92G was 1.27; that for A54G A78C U102C A135G was 0.48; that for A54G U72A C112U was 0.03.
Regarding A54G A78G U103C A118G, the self-cleavage is 0.02.
The value for A55C A118G U120C was 0.11; that for A54G A69U A82G A94G U103C was 1.99.
With A55G A62G A86G A98U A111G U132A A135G the figure was 0.
With A52G A67G A110G A118G the figure was 0.07.
Regarding A52G A92G U102A, the self-cleavage is 1.39.
With A52G A92G A94G the figure was 1.18.
The value for A54U A59G U100G was 1.55; that for A52U A59G C76G U122C was 0.02; that for A52G A95G U139C was 2.47.
The value for A54G A56G U72C was 0.23.
For A52G A55G A67U A94G, the self-cleavage was determined as 0.49.
The value for G53U U127C U130A was 0.29.
With A54G A98G A125G the figure was 0.1; with A55G A69G U97C, 1.13; with A52G A60G A110G, 0.06.
With A54U A59G A69G the figure was 1.38; with A52U A78G U108C, 0.02.
A55G A68G A90C: the self-cleavage was found to be 1.76.
With A55G A90G U103C the figure was 0.5; with A55G A60G A118G U131C, 1.97.
On to A54U U102C U132C, for which the self-cleavage came out at 1.95.
The value for A55G A67G A111U A126G was 0.05.
With A52U A126U A129G the figure was 1.2; with A55G A60G A64G, 1.02; with A55G A69G G74A, 0.15.
With A54G A56G A91G U122C A126G U132C the figure was 0.9; with A54U A56U A89G, 0.98; with A54G A111G U122C, 0.
As to A55G A59U A67G U72A, the self-cleavage was determined as 0.
With A54G C77G A114G the figure was 0.1.
The value for A52U A66G A111G U127A was 0.03; that for A52G C77U A78G was 0.29; that for A52G A62G A68G A117U A129G U133C was 1.22.
As to A52G A126G A140U, the self-cleavage is 1.24.
With A52G A67G A78G G83A U139C, the self-cleavage turned out to be 0.22.
For A55G A56G A82G A96G U120C, the self-cleavage was 0.17.
For the variant A52G A118G C121A U130C, the self-cleavage amounted to 2.55.
The value for A52U U57C A63G A114G was 0.16; that for A55G A62G A78G was 0.32; that for A54G U108C A116G was 0.02.
The value for A54G A59U U108C A111G A117G A118G was 0; that for A52U A67G A111U was 0.14.
With A54G A55G A95G U100C the figure was 2.61; with A55G U57C A89G U97C U132C, 0.66; with A54G A78U A111G, 0.04.
Regarding A52U A59G U70C A90G U124A, the self-cleavage was determined as 0.19.
With A52G A62U A92G A118U, the self-cleavage amounted to 1.24.
With A52G A94G A96G the figure was 0.54; with A54U A78G A92G A96G, 0.27.
The value for A52G A60G U87C A91G was 0.19; that for A54G A67G G75A C112U was 0.03.
For the variant A55G A62G A91G, the self-cleavage stood at 0.78.
With A54G U87A U132A the figure was 0.22.
Regarding A55G A56C U122A, the self-cleavage turned out to be 1.97.
The value for A55G A67C A86G was 0.72; that for A55G A110U A114G A118G was 0.37; that for A54G A55G U124C was 0.85.
The value for A52G U70C A117G U130C was 0.61; that for A54G A64G U131C U132C was 1.07.
With A52G A67G A94G the figure was 1.12; with A52U U72G G83C, 0.35.
Take A55G A82U A86G A111G: the self-cleavage was 0.01.
With A55G A78U A126G, the self-cleavage was determined as 0.31.
The value for A52G A64G A98G A111G was 0.03; that for A52G A55G U102A A118U was 0.16; that for A52U A111G U120A was 0.01.
With A52G A62G A64G G74A U97C the figure was 0.16; with A54G U57A A92G A129U, 0.91.
The value for A52G A62U A92G was 0.28; that for A52G A117G U127C was 1.37; that for A54G A86G U103C was 0.63.
A54G U70A A110G A116U: the self-cleavage worked out at 0.03.
As for A54G U70C A89G, the self-cleavage is 1.13.
With A55G A67G A86G A125G the figure was 0.06.
The value for A54G C107U A110C U124C was 0.01; that for A54G A55G A68G was 1.81; that for A55G A62C A64U C71A A92G U122C was 0.14.
With A54G A78U A92G U120C the figure was 0.06.
As to A52G U57A A118C U131C, the self-cleavage was determined as 0.59.
With A55G A110U A116G the figure was 0.33; with A55G A59G A94G, 0.9.
The value for A55G U57C A59G A90G was 0.15; that for A55G A56G A59U was 0.76; that for A55C A64G U108A was 0.01.
The value for A54G A64G A69G A96G A135G was 1.47; that for G53U A59G A86G A90G was 0.61.
On to A54G A62G A91G, for which the self-cleavage turned out to be 1.44.
The value for A54G A111G A134G was 0.
With A54G A56G A118G the figure was 1.23; with A52G U87C A90G, 0.34; with A54U U70C A96G, 0.75.
As for A54G A62G G106C, the self-cleavage was 0.02.
A54U A68G U72C: the self-cleavage is 0.26.
The value for G53A A56G A135G was 1.46.
The value for A54G G65A A94U U120A was 2.21; that for A52G A54U A111G A117G was 0.06.
The value for A55G A62C A82G A94G was 0.46.
On to A52G U100A A126U A140G, for which the self-cleavage is 0.32.
The value for A54G A95U U108C U131C was 0; that for A55G A66U U87C A110G was 0.15.
With A54U A62G A126G the figure was 1.48; with A54G A60U G93C U120C, 1.7.
With A54G A66G A67G A78G the figure was 0.1; with A52G A69G U120C A135U, 0.89.
For the variant A52G A69U A78U, the self-cleavage was 0.35.
With A55G A89U U102C U103C the figure was 0.23; with A55G U57A A92G G123A, 1.13.
With A52U A91G U103C the figure was 0.47; with A55G A64G A118G, 0.82; with A55G A63G A125G A126G, 0.15.
The value for A55G A69G A91G U97A was 1.03; that for A54G A56G A94U was 1.19.
Regarding A54G A62G A114C, the self-cleavage stood at 0.02.
With A52U A78G A89G G106A the figure was 0.02; with A54G U72C A96U A111G, 0.03.
With A55G A86U A95G the figure was 2.26; with A52G A54G A126G, 1.99.
A52G A78G A92U: the self-cleavage was found to be 0.3.
With A52G A82G A90G A111G A135G the figure was 0.01; with A54U A126C A135G, 0.37.
With A54G A56G A59U the figure was 0.9; with A54G A68G A69G, 0.55.
The value for A54G A55G A82G was 0.71.
For the variant A52G A60U A82U, the self-cleavage was found to be 0.26.
On to A52U A54G A55U A64G A86C, for which the self-cleavage is 0.86.
The value for A52G A67G A82G A91G was 0.09; that for G53A U70C A111G was 0.04.
The value for A54G A91G A114G was 0.38; that for A54G A56G A59G A63G was 1.71; that for A55G A111G U127C U131C was 0.01.
Take A52G U87C A126G: the self-cleavage was determined as 0.65.
The value for G53A A92U A111U A126G was 0.06.
The value for A52G U100C U139A was 2.21; that for A52G A67G U72C was 0.44; that for A55G A86G A118G was 1.08.
With A52G U124C A125U the figure was 0.86; with A52U U57C C71U U87C, 0.25.
As to A54U A67G U131C, the self-cleavage is 1.46.
With A52U A62G A98G the figure was 0.44; with A52G A116C U132C, 0.06; with A55G A126G U127C, 0.56.
With A52U U72A G84A the figure was 0.27; with A54G U108A U130C, 0.01.
With A55G A94G C128A U132C the figure was 0.82; with A55C A59U A90G A114G A118G, 0.06; with A54G U108C U130G, 0.
